The other results are listed elsewhere or left out. These are noisy estimates, calculated here from bound and input reads.
Target: T1, Pho4 (S. cerevisiae) (UniProt P07270)
T1 sequence: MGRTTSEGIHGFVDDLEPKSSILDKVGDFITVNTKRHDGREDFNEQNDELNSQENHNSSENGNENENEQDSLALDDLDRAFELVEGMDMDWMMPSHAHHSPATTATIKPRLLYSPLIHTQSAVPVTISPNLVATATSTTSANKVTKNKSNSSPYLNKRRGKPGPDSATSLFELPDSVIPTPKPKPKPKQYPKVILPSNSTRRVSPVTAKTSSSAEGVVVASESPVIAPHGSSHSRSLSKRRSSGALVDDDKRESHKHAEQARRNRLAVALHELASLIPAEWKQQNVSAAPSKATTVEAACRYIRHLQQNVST
Test: relative binding free energy (BET-seq); higher = weaker binding
Conditions: reference: library average

Sequence | relative binding free energy [kJ/mol]
TTTAACACGTGGTTAT | -0.0837
GTGGCCACGTGAATGT | 1.51
AAGTTCACGTGTGGGG | 1.42
GCGGGCACGTGGGGAT | -0.251
GGGGGCACGTGATATG | -0.335
GGTTACACGTGCAGCG | 1.26
GCTTGCACGTGGAATG | 0.251
TGAGGCACGTGCGGCT | -0.837
TCCGTCACGTGTGGAG | 0.753
GTGAGCACGTGAGAGG | 0.251
TCTAACACGTGTTGTG | -0.209
GGCTGCACGTGAGGCT | 1.09
TTGCTCACGTGGTGGG | 1.38
AGGGACACGTGTTAAT | 0.335
TTAGTCACGTGTTACG | 0.0418
TAAGGCACGTGAGGAG | 0.293
GTTGGCACGTGTATAT | 0.126
AGTCGCACGTGGGGCA | -1.26
AGGGCCACGTGGTTGG | -0.251
AGGTTCACGTGGTACG | 0.544
CTTGGCACGTGGCGAT | -0.837
GTGGCCACGTGAGTAG | 0.879
TTGGTCACGTGATATG | 0.962

Sequence | relative binding free energy [kJ/mol]
TCTCGCACGTGGTGGT | -1.09
GGTAACACGTGGGGAC | -0.628
GGTATCACGTGGCTCG | 0.879
AATGACACGTGGAATT | 0.377
TATGTCACGTGGAGTG | -0.167
TAGCGCACGTGGAGTC | 0.502
TTGAGCACGTGGGATA | -0.753
AAATCCACGTGTGGGT | 0.335
GTTATCACGTGAGGTC | 1.26
AGTTTCACGTGAGATA | 1.3
AGGCTCACGTGGGGCA | 0.544
GGTAGCACGTGGCTGA | -0.502
TCTGGCACGTGTAGTT | -0.0418
TACTACACGTGGGGTT | -0.628
TGCTGCACGTGGGTCT | -0.879
ATTGTCACGTGTCAGT | 0
GGGCGCACGTGTGTCG | -0.251
CGTAGCACGTGAGGGT | 0.46
AATGGCACGTGAGGCG | 0.46
TTGTTCACGTGGGGTC | 0.753
ATTCTCACGTGTTTTA | 0.753
AAGTGCACGTGGTTGC | -0.46
TTTAACACGTGGCAGT | -0.167

Sequence | relative binding free energy [kJ/mol]
TGGTGCACGTGGTCTA | -0.962
GTATTCACGTGCGCGG | 0.335
TTCAGCACGTGCTGTT | -0.795
GGCAACACGTGTGTGT | 0.669
TAAAGCACGTGGTGGA | -0.502
TCGAGCACGTGTGTTT | -0.209
TGGAACACGTGTGCGT | -0.0418
GTCGACACGTGTTGTG | 0.502
GGAGGCACGTGAGGCG | 0.586
ATTAACACGTGGGTAT | -1.05
TTAGCCACGTGGGGGT | -1.09
TGTTACACGTGGTATC | -0.167
GAATACACGTGGGTGG | -0.46
ATGTTCACGTGCGTAG | 0.502
AGGAACACGTGTATGT | 0.669
GGTACCACGTGGGGAG | -1.13
ACAGACACGTGGTGTG | -0.418
GGGTACACGTGGGGGG | 0.335
AGGTCCACGTGGTCGT | -0.544
TGTTCCACGTGGTTTT | -0.46
GAGGTCACGTGACTGG | 1
GGGTACACGTGGTTGG | 0.418
TTTGACACGTGTTTTT | 0.586

Sequence | relative binding free energy [kJ/mol]
TTCGGCACGTGGTAGA | -0.0418
ATGTGCACGTGAGTGA | 0.335
TCGATCACGTGGGGCG | 0.126
TTTTCCACGTGAGAGT | 0.544
CTTGGCACGTGCGAGT | -0.502
GTTCGCACGTGGTATT | -0.418
AGGGGCACGTGGGTCA | -1.09
TCCGGCACGTGGGTAG | -1
AAGTTCACGTGCGGTC | 1.34
AGTAACACGTGATGTG | 0.628
AGATGCACGTGTTGTA | -0.0837
ATTTGCACGTGCTTGT | 0.209
AGCGGCACGTGCTTGG | -0.837
TGTGACACGTGATAAT | 0.209
CTTTTCACGTGGATTT | 1.13
GGGGTCACGTGTGAAC | 0.711
CTTTTCACGTGGTACG | 0.669
TAACGCACGTGGGTTG | -0.669
TTATGCACGTGTGAAA | 0.628
AGGCTCACGTGGGGTC | 0.335
TTGTGCACGTGGGAAT | -0.377
CTGTTCACGTGCGGGT | 0.962
TTCAGCACGTGTGTAG | -0.795

Sequence | relative binding free energy [kJ/mol]
ATATACACGTGTATTT | 0.126
AGATTCACGTGGTTTG | 0.544
GCTGTCACGTGGTCTG | 0.0418
GTAAACACGTGGTTTT | -0.126
GATTTCACGTGTTAGT | 1.92
TGAAACACGTGTGGTA | 0.753
GCTGTCACGTGGGTTG | 0.167
GGTTACACGTGAGATA | 0.879
TGTTACACGTGTTGCC | 1.55
GGAGGCACGTGGCTTC | 0
GGAGGCACGTGATTGT | -0.0418
CGGGTCACGTGCGGAG | 0.377
TTAGTCACGTGAGTCT | 1.26
ATTTCCACGTGGTTGT | -0.0418
GATTGCACGTGGGTTA | -0.251
AGCTGCACGTGGTTTG | -0.502
TTGTTCACGTGTTATA | 1.13
GGATACACGTGGTTTA | -0.0418
TTTTCCACGTGGTTGG | 0.0418
TGTGCCACGTGCAAGG | -0.377
GGGCTCACGTGAGTAT | 1.72
GGTCACACGTGCTTTG | 0.962
AGTGGCACGTGTGGAA | 0.167

From the BET-seq Pho4 binding data (Le et al. 2018)
